# Reference: publication PMC4336329 (PLoS ONE, 2015)
# About 2,200 (0.71%) of roughly 310,000 compounds showed an effect of 50% or more. Effects have a minus sign here. Some of the results follow.
# Target: human ether-à-go-go-related gene (hERG) potassium channel (human, UniProt Q12809)
# Experiment: primary screen, population patch clamp on CHO cells stably expressing hERG
# human ether-à-go-go-related gene (hERG) potassium channel, sequence (Q12809 whole entry, looked up): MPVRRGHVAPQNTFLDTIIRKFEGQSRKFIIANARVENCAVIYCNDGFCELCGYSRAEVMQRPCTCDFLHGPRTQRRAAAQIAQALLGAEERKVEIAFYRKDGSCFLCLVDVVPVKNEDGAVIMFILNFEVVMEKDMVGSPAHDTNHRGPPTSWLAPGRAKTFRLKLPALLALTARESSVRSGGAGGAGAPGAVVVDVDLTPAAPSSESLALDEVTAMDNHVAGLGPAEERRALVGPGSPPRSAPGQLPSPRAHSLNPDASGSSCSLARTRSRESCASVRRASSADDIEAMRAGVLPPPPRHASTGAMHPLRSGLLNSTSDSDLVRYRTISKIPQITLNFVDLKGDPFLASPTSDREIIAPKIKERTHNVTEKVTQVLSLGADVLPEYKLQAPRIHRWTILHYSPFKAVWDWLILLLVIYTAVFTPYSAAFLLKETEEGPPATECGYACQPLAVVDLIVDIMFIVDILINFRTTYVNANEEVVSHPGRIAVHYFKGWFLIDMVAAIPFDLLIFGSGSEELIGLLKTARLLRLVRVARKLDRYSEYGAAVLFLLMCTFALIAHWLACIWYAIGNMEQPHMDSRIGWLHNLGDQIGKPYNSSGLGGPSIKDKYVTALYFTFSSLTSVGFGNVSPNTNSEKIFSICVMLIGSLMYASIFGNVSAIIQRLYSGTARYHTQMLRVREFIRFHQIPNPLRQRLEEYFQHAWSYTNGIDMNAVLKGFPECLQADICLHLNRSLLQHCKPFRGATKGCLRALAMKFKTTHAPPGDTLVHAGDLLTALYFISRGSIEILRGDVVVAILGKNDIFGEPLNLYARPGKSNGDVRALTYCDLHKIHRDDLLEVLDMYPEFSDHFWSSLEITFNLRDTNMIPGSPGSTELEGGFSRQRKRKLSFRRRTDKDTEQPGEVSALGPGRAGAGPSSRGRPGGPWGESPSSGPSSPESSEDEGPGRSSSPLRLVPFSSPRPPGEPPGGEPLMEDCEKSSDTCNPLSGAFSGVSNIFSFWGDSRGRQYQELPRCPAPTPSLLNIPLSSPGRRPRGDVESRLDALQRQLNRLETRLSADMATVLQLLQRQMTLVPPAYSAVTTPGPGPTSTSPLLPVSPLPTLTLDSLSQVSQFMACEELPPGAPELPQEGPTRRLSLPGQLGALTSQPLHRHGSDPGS
row,Compound,"hERG current change (%, negative = inhibition) at 1uM"
1,CCCCn1c(CCC(=O)O)nc2cc(S(=O)(=O)N(CC)CC)ccc21,15.4%
2,O=C(Nc1ccccc1NS(=O)(=O)c1ccc(F)cc1)C1CCCC1,3.67%
3,CCNC(=S)NNc1nc(N2CCCCC2)nc(N2CCOCC2)n1,5.66%
4,Cc1cccc(NC(=S)N(CCN2CCOCC2)Cc2cc3cc4c(cc3[nH]c2=O)OCCO4)c1,9.81%
5,Cc1cccc(-c2c3c(=O)n(C)c(=O)n(C)c3cn2-c2ccccc2O)c1,4.96%
6,Cc1ccc2c(c1)N(CC(=O)NC1CCCC1)C(=O)C(C)O2 (centres unmarked),13.7%
7,O=C(Oc1ccc(C(=S)N2CCOCC2)cc1Br)c1cc(Cl)ccc1Cl,19.5%
8,CC(C(=O)Nc1ccc2c(c1)OCCO2)N1CCN(C(=O)c2ccco2)CC1 (centres unmarked),-1.52%
9,Cc1ccc(C)c(NC2=NS(=O)(=O)c3ccccc32)c1,3.55%
10,Cc1cccc(-n2c(SCC(=O)N3CC(=O)Nc4ccccc43)nc3ccccc3c2=O)c1C,5.43%
11,O=C(CSc1n[nH]c(-c2ccccc2Cl)n1)NCc1cccc(C(=O)O)c1,10.2%
12,Cc1cc(Cl)ccc1Oc1cccc(C(=O)/C(C#N)=C/N(C)C)c1,6%
13,CCCCNC(=O)CSc1nc2ccc(Nc3nc(N4CCOCC4)nc(N4CCOCC4)n3)cc2s1,-3.05%
14,N#Cc1c(N)n(Cc2ccccc2)c(=O)c2cc([N+](=O)[O-])ccc12,12%
15,Cc1cccc(Cc2nnc(CCC(=O)N(C)Cc3ccncc3C)o2)c1,20.3%
16,Cc1ccc(C(=O)N2CC(=O)Nc3ccc(F)cc3C2c2ccc(F)cc2)cc1 (centres unmarked),1.74%
17,COc1ccc(C(=O)NC(C(=O)N2CCN(c3ccccc3O)CC2)C(C)C)cc1 (centres unmarked),7.47%
18,CN(C(=O)c1ccc(Br)o1)C1CCS(=O)(=O)C1 (centres unmarked),16.7%
19,CCOC(=O)CNC(=O)CSc1nnc(CCc2nc3ccccc3[nH]2)n1C,13.3%
20,CCN(CC)CCCNc1cc(C)nc2cc(-c3cccs3)nn12,14.4%
21,CCN1CCN(C(=O)Cn2nc(C)c3sc4ccccc4c3c2=O)CC1,7.51%
22,COC(=O)C1=C(C)NC(=S)NC1c1ccc(-c2cc(Cl)ccc2Cl)o1 (centres unmarked),0.473%

row,Compound,"hERG current change (%, negative = inhibition) at 1uM"
1,O=[N+]([O-])c1ccccc1/C=C/C=N/n1c(-c2cc(-c3ccccc3)n[nH]2)n[nH]c1=S,3.85%
2,C=CCSC(=C(C#N)C#N)c1cc2c([nH]1)CCCC2,7.76%
3,O=C(CN(Cc1ccccc1)S(=O)(=O)c1ccc(F)cc1)NCc1ccccn1,7.82%
4,Cc1ccc(C(=O)O)cc1NC(=O)C1CCCN1S(=O)(=O)c1cccc2nsnc12 (centres unmarked),-1.27%
5,CC1=C(C(=O)Nc2ccccc2)C(c2ccccn2)n2nc(CCCO)nc2N1 (centres unmarked),12.5%
6,O=C(NC1CCCCC1)C1CCN(S(=O)(=O)N2CCOCC2)CC1,16.2%
7,CCCP(=O)(CC(=O)O)c1ccccc1 (centres unmarked),8.21%
8,CC(C)Cn1c(=O)c(C(=O)Nc2cnccn2)c(O)c2ccccc21,5.42%
9,Cc1nn(CCCC(=O)Nc2sc3c(c2C#N)CCC3)c(C)c1[N+](=O)[O-],9.76%
10,O=S(=O)(NCCSc1ccc(Cl)cc1)c1ccc(F)cc1,18.3%
11,Cc1ccc(C(=O)NC(=S)Nc2ccc3[nH]c(=O)[nH]c3c2)cc1C,12.5%
12,Cc1c(-c2csc(N)n2)cnn1C,6.03%
13,O=C(Nc1ccccc1N1CCOCC1)c1cccc([N+](=O)[O-])c1,2.37%
14,N#Cc1c(NC(=O)COC(=O)c2nccnc2N)sc2c1CCCC2,13.3%
15,CN1C(=O)/C(=C/C=C2\SCCN2C)OC1=S,12.8%
16,O=C(O)CN1C(=O)/C(=C\c2ccccc2OCc2ccc(Cl)cc2Cl)SC1=S,11%
17,Cc1ccc(OCC(=O)Nc2ccc(CN3CCCCC3)cc2)c(C)c1,-30.7%
18,CCN(CC)S(=O)(=O)c1ccc(O)c(C(=O)OCC(=O)NC2CCCC2)c1,10.3%
19,CCc1cc(=O)oc2cc(C)cc(OCC(=O)NCC3CCC(C(=O)O)CC3)c12 (centres unmarked),12.5%
20,CC(=O)c1ccc(N2CCN(C(=O)CCC(=O)Nc3ccc4nc(N5CCN(C)CC5)cc(C)c4c3)CC2)cc1,13.6%
21,O=C(Nc1ccccc1C(=O)NCC1CCCO1)c1ccccc1 (centres unmarked),-6.15%
22,Br.C1=C(c2ccccc2)N2CCN=C2S1,6.51%
